Experimental data as given in PubChem BioAssay AID686970 (National Center for Advancing Translational Sciences (NCATS), 2013).
About 6,000 (1.7%) of roughly 360,000 compounds were called active. Inconclusive means that the source gave no clear call. Such entries were picked first, then a sample of the others. Calls follow the shape of the dose curve; as a rule, active = well fitted cell-killing curve with a large enough effect; inconclusive = small, poorly fitted or top-dose-only effect, or effect the other way; inactive = flat fitted curve, though single readings scatter. No potency is given beside an inconclusive call; the fits are too rough.

assay: qHTS for induction of synthetic lethality in tumor cells producing 2HG: qHTS for the HT-1080-NT fibrosarcoma cell line; conditions: HT-1080-NT fibrosarcoma viability, CellTiter-Glo ATP luminescence, 48 h; activity, negative = less viability: at 46.1 µM (top of the series) unless noted;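 also: NT is the 2HG producing partner of a matched IDH1 knockdown line; nearly all actives have a fitted effect of over 55% in size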;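 as to activity, negative = less viability: 0% = DMSO-treated cells and -100% = media-only wells without cells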
In short: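 Compounds were tested in concentration-response format on HT-1080-NT cells for 48 hours at 37 degrees C. Cell viability came from CellTiter-Glo luminescence; curves were classified by r2, response magnitude and activity.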
Potency is read from the fitted curve at half-maximal effect; tags tell the direction and shape of the fitted curve.

Structure (SMILES)	Potency	activity, negative = less viability
Cc1nn(-c2ccccc2)c2c1CC(=O)Nc1ccccc1-2	inconclusive [cytotoxic, full curve]	
CCN(C(=O)CSc1n[nH]c(N)n1)c1cccc2ccccc12		inactive: 4.83%
Oc1ccc(O)c(Cc2nc3ccccc3s2)c1	inconclusive [cytotoxic, partial curve]	
COC(=O)N(C)C[C@@H]1OCc2cnnn2CCCC(=O)N([C@@H](C)CO)C[C@H]1C		inactive: 10.2%
CCc1nn(CCCN2CCN(c3cccc(Cl)c3)CC2)c(=O)n1CCOc1ccccc1	inconclusive [cytotoxic, single point]	
CCOc1cc2c(c3c1C(c1ccccc1)N(S(=O)(=O)c1ccc(C)cc1)C3)C(=O)C=CC2=O (stereo not drawn)	active: 6.51 µM	
COCCN=c1scc(-c2cc(OC)ccc2OC)n1/N=C/c1c[nH]c2ccccc12	inconclusive [cytotoxic, partial curve]	
O=C(Nc1ccc(F)c(Cl)c1)C1Cc2c(-c3ccc4c(c3)OCO4)ccnc2O1 (stereo not drawn)	active: 16.4 µM	
CC(C)(C)C(=O)Nc1ccc(N2CCCC2)cc1		inconclusive: 32.3%
COc1ccccc1N(CC(=O)NC1CCCC1)C(=O)CCC(=O)Nc1cc(C)on1	inconclusive [rising, single point]	
O=C(NCc1ccc(OC(F)(F)F)cc1)c1cccc2c1C(=O)c1ccc(N3CCCC3)cc1S2(=O)=O	inconclusive [rising, single point]	
COc1ccc(Cl)cc1NC(=O)c1[nH]c(C)c(C(C)=O)c1C		inactive: -1.45%
O=C(c1cccs1)N1CCCC1		inactive: 7.48%
CC(C)CCSc1ncnc2c1oc1nc3c(cc12)COC(C)(C)C3	inconclusive [cytotoxic, full curve, poor fit]	
CCNc1nc(NCC)nc(OCCOC(=O)c2ccccc2)n1		inactive: -1.52%
O=C(CCNc1cccc(F)c1)c1cccc([N+](=O)[O-])c1	inconclusive [cytotoxic, single point]	
CCOc1cc(N2CCOCC2)c(OCC)cc1NC(=O)CN1C(=O)NC(CC)(c2ccc(F)cc2)C1=O (stereo not drawn)		inactive: -3.15%
COc1ccc(Nc2nc(-c3ccccc3O)nc3ccccc23)cc1	inconclusive [cytotoxic, single point]	
CN(C)CCCN(C(=O)COc1ccc(Cl)cc1)c1nc2cc3c(cc2s1)OCO3	inconclusive [cytotoxic, single point]	
COc1cc2nc(N3CCCN(C)CC3)nc(NC3CCN(Cc4ccccc4)CC3)c2cc1OC	active: 10 µM	
COc1ccc(-c2nc3ccccc3[nH]2)cc1	active: 10 µM	
O=C(NC(c1cccnc1)c1ccc2c(c1)OCO2)C1CCN(CCOc2ccc(Cl)cc2Cl)CC1 (stereo not drawn)	inconclusive [cytotoxic, single point]	
CCOC(=O)C1CCCCN1S(=O)(=O)c1cc2c(cc1C)NC(=O)CO2 (stereo not drawn)		inactive: 14%
O=S(=O)(c1cccc2cnccc12)N1CCCNCC1	inconclusive [cytotoxic, partial curve]	

Structure (SMILES)	Potency	activity, negative = less viability
Oc1cccc(/C=N/N(Cc2ccccc2)c2ccccc2)c1	inconclusive [cytotoxic, single point]	
CC(C)SC1=NC(C)(C)C=C(/C=C/c2ccc(Cl)cc2Cl)N1	inconclusive [cytotoxic, single point]	
CC(C(=O)NCc1ccco1)n1nc(-c2ccccc2)c2cc(Cl)ccc21 (stereo not drawn)		inactive: -1.33%
Cc1cc(C)c2nc(SCC(=O)NCC3CCCO3)c(C#N)cc2c1 (stereo not drawn)		inactive: 20.2%
Cc1ccc(OCC(=O)N2CCOCC2)cc1C		inactive: 1.41%
CCOc1ccc(S(=O)(=O)NCc2cccnc2)cc1C		inactive: 17%
Brc1ccc2c(c1)C(c1cccnc1)=NNC(c1cccs1)=N2	inconclusive [cytotoxic, single point]	
O=C1NCCSC1c1ccccc1 (stereo not drawn)		inactive: 7.94%
CC(Oc1ccc(Br)cc1)C(=O)Nc1nc(-c2ccccn2)cs1 (stereo not drawn)		inconclusive: -12.7% [cytotoxic]
Cc1ccc(S(=O)(=O)NCc2ccc(C(=O)NCCCN3CCC(Cc4ccccc4)CC3)cc2)cc1		inconclusive: -32.6% [cytotoxic]
CN(C)c1ccc(C(=O)N/N=C/c2cc(Br)cc(Br)c2O)cc1	inconclusive [cytotoxic, full curve]	
CCc1ccccc1NC(=O)CSc1nc2cc(C(=O)NCC3CCCO3)ccc2c(=O)n1CC1CCCO1 (stereo not drawn)		inactive: -1.24%
CNc1ncc(C(=O)c2ccc(-c3ccccc3)cc2)s1	inconclusive [cytotoxic, single point]	
CC(C)CSC1=NSC2=NC(=O)/C(=C\c3ccccc3)C(=N)N12	inconclusive [cytotoxic, single point]	
CC(C)SC1=NC(C)(C)C=C(/C=C/c2c(Cl)cccc2Cl)N1	inconclusive [cytotoxic, partial curve]	
COC(=O)c1cccc(NC(=O)c2cc3sccc3n2C)c1		inactive: 3%
CCN1C(=O)[C@H]2[C@@H](c3ccc(-c4ccc5c(c4)OCO5)c(OC)c3)N[C@@](C)(C(=O)OC)[C@H]2C1=O	inconclusive [cytotoxic, partial curve]	
CCOC(=O)C(C)Oc1cccc2c(=O)n(CC(=O)NCc3ccc4c(c3)OCO4)ccc12 (stereo not drawn)	inconclusive [cytotoxic, full curve]	
Cc1ccccc1OCc1nnc2c3cnn(C)c3ncn12		inactive: 11.3%
Cc1ccc(-c2nnc(-c3ccccc3)c(N3CCOCC3)n2)cc1		inactive: 2.86%
COC(=O)C1(CC2CC(c3ccccc3)=NO2)CCN(C(=O)OC(C)(C)C)CC1 (stereo not drawn)		inactive: -4.52%
COC(=O)[C@]12CCCCC=C1N(Cc1ccc(Cl)cc1Cl)C(=O)[C@H](CC(=O)N1CCCC1)C2	inconclusive [cytotoxic, single point]	
Cc1ccc(S(=O)(=O)N2CCN(C(=O)c3cc(-c4cccs4)nn3-c3ccccc3)CC2)cc1		inactive: -0.51%
COc1ccc([C@H]2CC(=O)C=C(c3cccc4c3Oc3ccccc3S4)C2)cc1	inconclusive [cytotoxic, single point]	
